Measured values taken from the supplement of paper PMC8728848.
Some of the results follow.

Experiments:
Experiment in all cases: glycan array binding signal (z-score within array); higher = stronger binding
Conditions in all cases: glycan notation: IUPAC condensed, linker removed; mutation: Y228W
[1] = biological target: Gal3S(b1-3)[Fuc(a1-4)]GlcNAc
Method in brief: (§1)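 The binding signal is a Z-score computed within each array. Data were drawn from 3228 arrays in the Consortium for Functional Glycomics database, restricted to those with a known protein sequence. Scores were averaged over arrays of the same protein sequence at different concentrations or buffers, and over linkers, and negative values can be taken as non-binding.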

Gal3S(b1-4)Glc = biological target: Gal3S(b1-4)Glc
Method in brief: as §1

Gal3S(b1-4)Glc6S = biological target: Gal3S(b1-4)Glc6S
Method in brief: as §1

Gal3S(b1-4)GlcNAc = biological target: Gal3S(b1-4)GlcNAc
Method in brief: as §1

[2] = biological target: Gal3S(b1-4)[Fuc(a1-3)]Glc6S
Method in brief: as §1

[3] = biological target: Gal3S(b1-4)[Fuc(a1-3)]GlcNAc
Method in brief: as §1

[4] = biological target: Gal3S(b1-4)[Fuc(a1-3)]GlcNAc6S
Method in brief: as §1

Gal3S4S(b1-4)GlcNAc = biological target: Gal3S4S(b1-4)GlcNAc
Method in brief: as §1

Gal3S6S(b1-4)GlcNAc = biological target: Gal3S6S(b1-4)GlcNAc
Method in brief: as §1

Gal3S6S(b1-4)GlcNAc6S = biological target: Gal3S6S(b1-4)GlcNAc6S
Method in brief: as §1

Gal4S(b1-4)GlcNAc = biological target: Gal4S(b1-4)GlcNAc
Method in brief: as §1

Gal4S6S(b1-4)GlcNAc = biological target: Gal4S6S(b1-4)GlcNAc
Method in brief: as §1

Gal6P(b1-4)GlcNAc = biological target: Gal6P(b1-4)GlcNAc
Method in brief: as §1

Gal6S(b1-3)GlcNAc = biological target: Gal6S(b1-3)GlcNAc
Method in brief: as §1

Gal6S(b1-3)GlcNAc6S = biological target: Gal6S(b1-3)GlcNAc6S
Method in brief: as §1

Gal6S(b1-4)Glc = biological target: Gal6S(b1-4)Glc
Method in brief: as §1

Gal6S(b1-4)Glc6S = biological target: Gal6S(b1-4)Glc6S
Method in brief: as §1

Gal6S(b1-4)GlcNAc = biological target: Gal6S(b1-4)GlcNAc
Method in brief: as §1

Gal6S(b1-4)GlcNAc6S = biological target: Gal6S(b1-4)GlcNAc6S
Method in brief: as §1

GalNAc(a1-3)Gal = biological target: GalNAc(a1-3)Gal
Method in brief: as §1

GalNAc(a1-3)GalNAc = biological target: GalNAc(a1-3)GalNAc
Method in brief: as §1

[5] = biological target: GalNAc(a1-3)GalNAc(b1-3)Gal(a1-4)Gal(b1-4)Glc
Method in brief: as §1

[6] = biological target: GalNAc(a1-3)GalNAc(b1-3)Gal(a1-4)Gal(b1-4)GlcNAc
Method in brief: as §1

GalNAc(b1-3)Gal = biological target: GalNAc(b1-3)Gal
Method in brief: as §1

[7] = biological target: GalNAc(b1-3)Gal(a1-4)Gal(b1-4)GlcNAc
Method in brief: as §1

[8] = biological target: GalNAc(b1-3)Gal(a1-4)Gal(b1-4)GlcNAc(b1-3)Gal(b1-4)Glc
Method in brief: as §1

[9] = biological target: GalNAc(b1-3)Gal(a1-6)Gal(b1-4)Glc
Method in brief: as §1

GalNAc(b1-3)GalNAc = biological target: GalNAc(b1-3)GalNAc
Method in brief: as §1

GalNAc(b1-3)GlcNAc = biological target: GalNAc(b1-3)GlcNAc
Method in brief: as §1

GalNAc(b1-4)Gal(b1-4)Glc = biological target: GalNAc(b1-4)Gal(b1-4)Glc
Method in brief: as §1

B1: Epa1-NP-mutant-Y228W (Candida glabrata), Q6VBJ0 (protein)
chain: MILNPALFLNKCVCIYTTLILLLLTNGGYATSSNDISLASKDPTTFPLGCSPDITTPKKGLSMELYSYDFRKKGSYPCWDAAYLDPNYPRTGYKSHRLLAKVDGVTGNINFYYHATKGCTPQLGHLPASYNYPKPLTMTNFTMLLYGYFRPKVTGFHTFTISADDLLFVNFGAGNAFDCCRRDSSADHFGNYQAYAIWGSKTAKDELTVHLDAGVYYPIRLFYNNREWDGALSFTFKTESNENTVSDFSEYFFSLDDTEEGCPGLISYDSSCASVKTSKIIGIDYHTETPNENLVPITKTIYHLGIPCTGTTTTPLCGSGFYDPLANKCVTINTSSTSSVTKTTSHTTSKEVSFHSSISSQKTLIPKSIPSPYGPIKSQSIPTEMETSSEISSSEYAFSDVISTPSHSPYTKKHSSLNSSSYTSTVIHSLTSYSISQGIFSTSLSEQNITSKSSTDKFSTATSMSNNITQSSIIISQFSTNNENYTTTSMHTSSDKISTETLNNSISTTTSILFSNSSTILKNNTTIISSDKDTHYHPVNPTIVCSTNKTEIICASITQPSISNSNNHWSSSVLKFNSTTVRSTLPSSAGSNETSINVPFSSSTESNTSTSSTSTSNSKMVRSTLPSSAGSNETSISVPFSSSTESNTSTSSTSTSNSKMVRSTLPSSAGSNETSINVPFSSSTESNTSTSSTSTSNSKTVRSTPFSSAGIIMTSLSQRNNKSASSYASSNSKCYNTADSCRKVHSTPSYLLTSSYTSEGVDYDCSLVSTKLKINDTNCVNNKHTTKSCLKTSVTTTIPTLEIKTARKSSSNTIGLHSYPTSSPNKSISSAPIIGYISSFKTIKTASPSYQTSDLTTITTITSLNNPGSTAVENTHESNDKSRKTSSNDISSKHSVIKETKDAVESSNKSHQTNTLKCSSIIIASSSHNSYESLGGTTLTLTLSKVYSPQNNDTLPFLEISEVNPSRTVLPESSKMMQYLTSTEERNKTARNTIATNIVSISTFHFEGEGNAIRMGYTQLLLMLIGIIVMNIGT
For B1, the “glycan array binding signal (z-score)” value [1] was 0.037, the “glycan array binding signal (z-score)” value (Gal3S(b1-4)Glc) was 0.028 and the “glycan array binding signal (z-score)” value (Gal3S(b1-4)Glc6S) was -0.121. The “glycan array binding signal (z-score)” value (Gal3S(b1-4)GlcNAc) was -0.29, the “glycan array binding signal (z-score)” value [2] was 0.488 and the “glycan array binding signal (z-score)” value [3] was -0.19. For the same binder, the “glycan array binding signal (z-score)” value [4] was -0.015, the “glycan array binding signal (z-score)” value (Gal3S4S(b1-4)GlcNAc) was -0.353 and the “glycan array binding signal (z-score)” value (Gal3S6S(b1-4)GlcNAc) was -0.07. The “glycan array binding signal (z-score)” value (Gal3S6S(b1-4)GlcNAc6S) was -0.037, the “glycan array binding signal (z-score)” value (Gal4S(b1-4)GlcNAc) was -0.096 and the “glycan array binding signal (z-score)” value (Gal4S6S(b1-4)GlcNAc) was -0.424. For the same binder, the “glycan array binding signal (z-score)” value (Gal6P(b1-4)GlcNAc) was -0.168, the “glycan array binding signal (z-score)” value (Gal6S(b1-3)GlcNAc) was -0.267 and the “glycan array binding signal (z-score)” value (Gal6S(b1-3)GlcNAc6S) was 0.205. The “glycan array binding signal (z-score)” value (Gal6S(b1-4)Glc) was 0.635, the “glycan array binding signal (z-score)” value (Gal6S(b1-4)Glc6S) was 1.09 and the “glycan array binding signal (z-score)” value (Gal6S(b1-4)GlcNAc) was 0.31. For the same binder, the “glycan array binding signal (z-score)” value (Gal6S(b1-4)GlcNAc6S) was 3.63, the “glycan array binding signal (z-score)” value (GalNAc(a1-3)Gal) was -0.128 and the “glycan array binding signal (z-score)” value (GalNAc(a1-3)GalNAc) was -0.17. For the same binder, the “glycan array binding signal (z-score)” value [5] was -0.397, the “glycan array binding signal (z-score)” value [6] was -0.245 and the “glycan array binding signal (z-score)” value (GalNAc(b1-3)Gal) was -0.214. The “glycan array binding signal (z-score)” value [7] was 0.025, the “glycan array binding signal (z-score)” value [8] was -0.295 and the “glycan array binding signal (z-score)” value [9] was -0.203. For the same binder, the “glycan array binding signal (z-score)” value (GalNAc(b1-3)GalNAc) was -0.323, the “glycan array binding signal (z-score)” value (GalNAc(b1-3)GlcNAc) was -0.269 and the “glycan array binding signal (z-score)” value (GalNAc(b1-4)Gal(b1-4)Glc) was 0.075.
